About 60 (0.1%) of roughly 46,000 compounds were called active. Another 3% or so got no clear call; they are omitted. Calls follow the shape of the dose curve; as a rule, active = well fitted inhibition curve with a large enough effect; inconclusive = small, poorly fitted or top-dose-only effect; inactive = no such curve, though single readings can be large or run the other way. The list shows a part of the results.
Assay: Primary qHTS assay for Inhibitors of ovarian cancer metastasis using an organotypic tumor microenvironment (TME) model. Also: nearly all actives have a fitted effect of over 65% in size.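 As to activity change, negative = inhibition: plate controls were DMSO wells for no effect and tomatine positive control wells for full effect.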
Details: SKOV3ip1-GFP adhesion/invasion on 3D omental model, fluorescence; series mostly up to 45.8 µM; activity change, negative = inhibition: at the top concentration
How it was run: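 Adhesion/invasion was scored as fixed GFP-labeled SKOV3ip1 cell counts (488/509 nm), normalized to DMSO and tomatine controls. Cancer cells in serum-free medium, with four compound doses (0.36-46 umol/L), sat 2 hr at RT then 16 hr at 37 C on a 48 hr fibroblast/mesothelial/ECM culture.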

Compound | activity change, negative = inhibition | outcome
CN(C)c1ccc(C(CNS(=O)(=O)c2ccccc2)N2CCc3ccccc32)cc1 (stereo not drawn) | inactive: 2.64% | –
COc1cc(C(=O)NCC(c2cccnc2)N2CCc3ccccc32)cc(OC)c1OC (stereo not drawn) | inactive: -0.107% | –
CCOC(=O)c1c(-c2ccc(Br)cc2)csc1NC(=O)c1ccccc1F | inactive: 0.925% | –
O=C(CSc1nccn1-c1ccc(F)cc1)Nc1ccc(OC(F)(F)F)cc1 | inactive: -8.64% | –
COc1cc(C2C(=O)N(C3CCCCC3)CC(=O)N2Cc2ccc(C)cc2)ccc1OC(C)C (stereo not drawn) | – | inactive
CCN(CC)C(=O)Cn1c(=O)n(Cc2ccc(C(=O)NCc3ccccc3Cl)cc2)c(=O)c2ccccc21 | inactive: 9.04% | –
COc1cc2c(cc1OC)C(COc1ccc3c(C)cc(=O)oc3c1)N(C(=O)c1ccc(Cl)cc1)CC2 (stereo not drawn) | inactive: 17.4% | –
O=C1CN(C(=O)c2ccccc2C(F)(F)F)C(c2ccccc2)c2cc(F)ccc2N1 (stereo not drawn) | inactive: -9.19% | –
CCCNc1c(NC(=O)c2ccc(OCCC)cc2)c(=O)oc2ccccc12 | inactive: -1.79% | –
O=C1[C@@H]2CSC(c3ccc(C(F)(F)F)cc3)N2C(=O)N1c1ccccc1 (stereo partly drawn) | inactive: 3.38% | –
Cc1ccc2c(C)c(C(=O)N(Cc3ccc(Cl)cc3)C3CCS(=O)(=O)C3)oc2c1 (stereo not drawn) | inactive: -2.54% | –
CCOc1ccc(-n2c(SCC(=O)N3CCOCC3)nc3c([nH]c4ccccc43)c2=O)cc1 | inactive: 38.8% | –
CC(C)(C)OC(=O)N1CCC(c2c(C(=O)N3CCN(C(=O)c4ccco4)CC3)cnn2-c2cccc(F)c2)CC1 | inactive: -10.1% | –
CCCC(=O)N1CCN(c2nc3c(OC)ccc(C)c3s2)CC1 | – | inactive
CC(=O)c1ccc(S(=O)(=O)Nc2cccc(-c3ccc(N4CCCCCC4)nn3)c2)cc1 | – | inactive
COc1cc(C(=O)Nc2ccc3nc(SCc4ccc(C)cc4)sc3c2)cc(OC)c1OC | inactive: -6.16% | –
Cc1ccc(Cl)cc1-n1ncc2c(NC3CCCCCC3)ncnc21 | inactive: -31.4% | –
Cc1ccc(-n2nc(C(=O)N3CCC(C)CC3)c(=O)n(C)c2=O)cc1 | inactive: 2.81% | –
O=C(Nc1cccc(F)c1)c1ccc2snnc2c1 | inactive: 23.3% | –
Cc1ccc(C)c(Nc2nnc(-n3nc(C)cc3C)c3ccccc23)c1 | inactive: 2.38% | –
O=C(NC1CC(=O)N(c2cccc(F)c2)C1)c1ccc(Br)o1 (stereo not drawn) | inactive: 16.1% | –
CSc1ccc(CCNC(=O)CCc2c(C)nc3c(c(C)nn3-c3ccccc3)c2C)cc1 | inactive: 2.73% | –
Cc1ccc(Cc2nc3ccccc3nc2SCC(=O)Nc2ccc3c(c2)OCO3)cc1 | – | inactive
Cc1nc(N2CCOCC2)c2c(C(=O)Nc3cccc(C(F)(F)F)c3)c(C)oc2n1 | inactive: -0.102% | –

Compound | activity change, negative = inhibition | outcome
COc1ccc(CNC(=O)C2CCN(Cc3nc(-c4ccc(Cl)cc4)oc3C)CC2)cc1 | inactive: -8.7% | –
Cc1ccc(S(=O)(=O)NCCS(=O)(=O)N2CCN(c3ccccc3)CC2)cc1 | inactive: -4.35% | –
O=C(O)c1cc(-n2c(/C=C\c3ccc(F)cc3)nc3ccccc3c2=O)ccc1Cl | inactive: -3.29% | –
Cc1cccc(N2CCN(CCNC(=O)C3COc4ccccc4C3)CC2)c1C (stereo not drawn) | inactive: 2.5% | –
O=C(NCc1ccc(Cl)cc1)c1cnc(N2CCCCC2)c2ccccc12 | inactive: -10.1% | –
Cc1ccc(CNC(=O)C(CC(C)C)NS(=O)(=O)c2ccc3c(c2)oc(=O)n3C)cc1 (stereo not drawn) | – | inactive
Cc1c(S(=O)(=O)c2cccc(Cl)c2)nnn1-c1cccc(C(F)(F)F)c1 | – | inactive
CC(=O)c1ccc(NC(=O)CCSc2nc(-c3ccco3)cc(C(F)(F)F)n2)cc1 | inactive: -12.1% | –
CCOC(=O)Cc1ccc(NC(=O)N2CCOc3ccc(C)cc32)cc1 | inactive: 5.69% | –
COc1ccc(OC)c(NC(=O)c2noc3c2CCCC3)c1 | inactive: 1.49% | –
CC(C)c1ccc(NC(=O)C2CCCN(S(=O)(=O)c3cccc4cccnc34)C2)cc1 (stereo not drawn) | inactive: 10.6% | –
COC(=O)c1c(-c2ccc(Cl)cc2)noc1N1CCN(c2ccc(C)cc2C)CC1 | inactive: 2.7% | –
Cc1ccc(OC(C)C(=O)Nc2nonc2-c2ccc(Br)cc2)cc1C (stereo not drawn) | inactive: -14.3% | –
O=C(Nc1c(Cl)cccc1Cl)c1cc(-c2ccc3c(c2)OCO3)on1 | inactive: -8.11% | –
CCOC(=O)Cn1c(=O)oc2cc(S(=O)(=O)N3CCN(c4cccc(C)c4C)CC3)ccc21 | inactive: 12.2% | –
Cc1ccc2nc(N(Cc3cccnc3)C(=O)COc3ccccc3)sc2c1 | inactive: -4.11% | –
CCc1nnc2c3ccccc3nc(Nc3ccc(C(C)=O)cc3)n12 | – | inactive
CCOC(=O)c1cc(S(=O)(=O)N2CCN(c3ccccc3)CC2)[nH]n1 | inactive: 17.9% | –
Cc1ccc(Oc2c(C(F)(F)F)oc3c(CN4CCCCC4C)c(O)ccc3c2=O)cc1 (stereo not drawn) | inactive: 4.7% | –
COc1ccc(C(=O)NCC(c2cccnc2)N2CCc3ccccc32)cc1 (stereo not drawn) | inactive: 10.4% | –
CCOC(=O)c1c(N)n(-c2ccc(C)c(Cl)c2)c2nc3ccccc3nc12 | – | inactive
CCOC(=O)CC(NS(=O)(=O)c1ccc2[nH]c3c(c2c1)CCCC3)c1ccccc1Cl (stereo not drawn) | inactive: -5.01% | –
COc1ccc(-c2nn3c(=O)cc(CN4CCN(C(=O)c5ccc(C(C)(C)C)cc5)CC4)nc3s2)cc1 | inactive: -1.37% | –
CC(C)OCCCNC(=O)c1ccc2c(c1)N(Cc1c(F)cccc1Cl)C(=O)c1ccccc1S2 | – | inactive
